Experimental findings from the supplement of paper PMC8728848 are described below.

Some of the results follow.

Holding throughout (assay): glycan array binding signal (z-score within array); higher = stronger binding
Conditions in all cases: glycan notation: IUPAC condensed, linker removed

Assay [1] addresses Gal(b1-4)GlcNAc(b1-2)[Gal(b1-4)GlcNAc(b1-6)]Man(a1-6)[Gal(b1-4)GlcNAc(b1-2)Man(a1-3)]Man(b1-4)GlcNAc(b1-4)[Fuc(a1-6)]GlcNAc. The method, boiled down: (§1)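 Arrays were curated from the Consortium for Functional Glycomics database, 3228 in total, and kept only where the protein sequence was available. Binding is expressed as a within-array Z-score. This score was averaged across arrays of the same protein sequence at different concentrations or buffers and across linkers, and negative values can be read as non-binding.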

Assay [2] concerns the target Gal(b1-4)GlcNAc(b1-2)[Gal(b1-4)GlcNAc(b1-6)]Man(a1-6)[GlcNAc(b1-4)][Gal(b1-4)GlcNAc(b1-2)Man(a1-3)]Man(b1-4)GlcNAc(b1-4)GlcNAc. The method, boiled down: as §1
The target in assay [3] is Gal(b1-4)GlcNAc(b1-2)[Gal(b1-4)GlcNAc(b1-6)]Man(a1-6)[GlcNAc(b1-4)][Gal(b1-4)GlcNAc(b1-2)[Gal(b1-4)GlcNAc(b1-4)]Man(a1-3)]Man(b1-4)GlcNAc(b1-4)[Fuc(a1-6)]GlcNAc. The procedure, abridged: as §1
Assay [4] concerns the target Gal(b1-4)GlcNAc(b1-3)Gal(b1-3)GalNAc. The procedure, abridged: as §1
Assay [5] addresses Gal(b1-4)GlcNAc(b1-3)Gal(b1-3)GlcNAc. The method, boiled down: as §1
For assay [6], the target named is Gal(b1-4)GlcNAc(b1-3)Gal(b1-4)Glc. The procedure, abridged:
as §1

Assay [7] concerns the target Gal(b1-4)GlcNAc(b1-3)Gal(b1-4)GlcNAc. The procedure, abridged: as §1
Assay [8] has as its target Gal(b1-4)GlcNAc(b1-3)Gal(b1-4)GlcNAc(b1-2)Man(a1-3)[Gal(b1-4)GlcNAc(b1-3)Gal(b1-4)GlcNAc(b1-2)Man(a1-6)]Man(b1-4)GlcNAc(b1-4)GlcNAc. The method, boiled down: as §1
Assay [9] concerns the target Gal(b1-4)GlcNAc(b1-3)Gal(b1-4)GlcNAc(b1-2)Man(a1-3)[Gal(b1-4)GlcNAc(b1-3)Gal(b1-4)GlcNAc(b1-2)Man(a1-6)]Man(b1-4)GlcNAc(b1-4)[Fuc(a1-6)]GlcNAc. The method, boiled down:
as §1

For assay [10], the target named is Gal(b1-4)GlcNAc(b1-3)Gal(b1-4)GlcNAc(b1-2)[Gal(b1-4)GlcNAc(b1-3)Gal(b1-4)GlcNAc(b1-6)]Man(a1-6)[Gal(b1-4)GlcNAc(b1-3)Gal(b1-4)GlcNAc(b1-2)Man(a1-3)]Man(b1-4)GlcNAc(b1-4)GlcNAc. The method, boiled down:
as §1

Assay [11] concerns the target Gal(b1-4)GlcNAc(b1-3)Gal(b1-4)GlcNAc(b1-2)[Gal(b1-4)GlcNAc(b1-3)Gal(b1-4)GlcNAc(b1-6)]Man(a1-6)[Gal(b1-4)GlcNAc(b1-3)Gal(b1-4)GlcNAc(b1-2)Man(a1-3)]Man(b1-4)GlcNAc(b1-4)[Fuc(a1-6)]GlcNAc. The method, boiled down:
as §1

The target of assay [12] is Gal(b1-4)GlcNAc(b1-3)Gal(b1-4)GlcNAc(b1-3)Gal(b1-4)GlcNAc. The procedure, abridged:
as §1

Assay [13] concerns the target Gal(b1-4)GlcNAc(b1-3)Gal(b1-4)GlcNAc(b1-3)Gal(b1-4)GlcNAc(b1-2)Man(a1-3)[Gal(b1-4)GlcNAc(b1-3)Gal(b1-4)GlcNAc(b1-3)Gal(b1-4)GlcNAc(b1-2)Man(a1-6)]Man(b1-4)GlcNAc(b1-4)GlcNAc. The procedure, abridged: as §1
The target of assay [14] is Gal(b1-4)GlcNAc(b1-3)Gal(b1-4)GlcNAc(b1-3)Gal(b1-4)GlcNAc(b1-2)Man(a1-3)[Gal(b1-4)GlcNAc(b1-3)Gal(b1-4)GlcNAc(b1-3)Gal(b1-4)GlcNAc(b1-2)Man(a1-6)]Man(b1-4)GlcNAc(b1-4)[Fuc(a1-6)]GlcNAc. The procedure, abridged:
as §1

Assay [15] concerns the target Gal(b1-4)GlcNAc(b1-3)Gal(b1-4)GlcNAc(b1-3)Gal(b1-4)GlcNAc(b1-2)[Gal(b1-4)GlcNAc(b1-3)Gal(b1-4)GlcNAc(b1-3)Gal(b1-4)GlcNAc(b1-6)]Man(a1-6)[Gal(b1-4)GlcNAc(b1-3)Gal(b1-4)GlcNAc(b1-3)Gal(b1-4)GlcNAc(b1-2)Man(a1-3)]Man(b1-4)GlcNAc(b1-4)[Fuc(a1-6)]GlcNAc. The procedure, abridged: as §1
The target in assay [16] is Gal(b1-4)GlcNAc(b1-3)Gal(b1-4)GlcNAc(b1-3)Gal(b1-4)GlcNAc(b1-3)Gal(b1-4)GlcNAc(b1-2)Man(a1-3)[Gal(b1-4)GlcNAc(b1-3)Gal(b1-4)GlcNAc(b1-3)Gal(b1-4)GlcNAc(b1-3)Gal(b1-4)GlcNAc(b1-2)Man(a1-6)]Man(b1-4)GlcNAc(b1-4)GlcNAc. The procedure, abridged: as §1
Assay [17] deals with Gal(b1-4)GlcNAc(b1-3)Gal(b1-4)GlcNAc(b1-3)Gal(b1-4)GlcNAc(b1-3)Gal(b1-4)GlcNAc(b1-2)Man(a1-3)[Gal(b1-4)GlcNAc(b1-3)Gal(b1-4)GlcNAc(b1-3)Gal(b1-4)GlcNAc(b1-3)Gal(b1-4)GlcNAc(b1-2)Man(a1-6)]Man(b1-4)GlcNAc(b1-4)[Fuc(a1-6)]GlcNAc. The procedure, abridged:
as §1

Assay [18] addresses Gal(b1-4)GlcNAc(b1-3)Gal(b1-4)GlcNAc(b1-3)Gal(b1-4)GlcNAc(b1-3)Gal(b1-4)GlcNAc(b1-2)[Gal(b1-4)GlcNAc(b1-3)Gal(b1-4)GlcNAc(b1-3)Gal(b1-4)GlcNAc(b1-3)Gal(b1-4)GlcNAc(b1-6)]Man(a1-6)[Gal(b1-4)GlcNAc(b1-3)Gal(b1-4)GlcNAc(b1-3)Gal(b1-4)GlcNAc(b1-3)Gal(b1-4)GlcNAc(b1-2)Man(a1-3)]Man(b1-4)GlcNAc(b1-4)[Fuc(a1-6)]GlcNAc. The method, boiled down: as §1
For assay [19], the target named is Gal(b1-4)GlcNAc(b1-3)Gal(b1-4)GlcNAc(b1-3)Gal(b1-4)GlcNAc(b1-3)Gal(b1-4)GlcNAc(b1-3)Gal(b1-4)GlcNAc(b1-2)Man(a1-3)[Gal(b1-4)GlcNAc(b1-3)Gal(b1-4)GlcNAc(b1-3)Gal(b1-4)GlcNAc(b1-3)Gal(b1-4)GlcNAc(b1-3)Gal(b1-4)GlcNAc(b1-2)Man(a1-6)]Man(b1-4)GlcNAc(b1-4)GlcNAc. The method, boiled down:
as §1

The target in assay [20] is Gal(b1-4)GlcNAc(b1-3)Gal(b1-4)GlcNAc(b1-3)Gal(b1-4)GlcNAc(b1-3)Gal(b1-4)GlcNAc(b1-3)Gal(b1-4)GlcNAc(b1-2)Man(a1-3)[Gal(b1-4)GlcNAc(b1-3)Gal(b1-4)GlcNAc(b1-3)Gal(b1-4)GlcNAc(b1-3)Gal(b1-4)GlcNAc(b1-3)Gal(b1-4)GlcNAc(b1-2)Man(a1-6)]Man(b1-4)GlcNAc(b1-4)[Fuc(a1-6)]GlcNAc. The procedure, abridged:
as §1

The target of assay [21] is Gal(b1-4)GlcNAc(b1-3)Gal(b1-4)GlcNAc(b1-3)Gal(b1-4)GlcNAc(b1-3)Gal(b1-4)GlcNAc(b1-3)Gal(b1-4)GlcNAc(b1-2)[Gal(b1-4)GlcNAc(b1-3)Gal(b1-4)GlcNAc(b1-3)Gal(b1-4)GlcNAc(b1-3)Gal(b1-4)GlcNAc(b1-3)Gal(b1-4)GlcNAc(b1-6)]Man(a1-6)[Gal(b1-4)GlcNAc(b1-3)Gal(b1-4)GlcNAc(b1-3)Gal(b1-4)GlcNAc(b1-3)Gal(b1-4)GlcNAc(b1-3)Gal(b1-4)GlcNAc(b1-2)Man(a1-3)]Man(b1-4)GlcNAc(b1-4)[Fuc(a1-6)]GlcNAc. The method, boiled down:
as §1

The target in assay [22] is Gal(b1-4)GlcNAc(b1-3)Gal(b1-4)GlcNAc(b1-3)Gal(b1-4)GlcNAc(b1-3)Gal(b1-4)GlcNAc(b1-3)Gal(b1-4)GlcNAc(b1-3)Gal(b1-4)GlcNAc(b1-2)Man(a1-3)[Gal(b1-4)GlcNAc(b1-3)Gal(b1-4)GlcNAc(b1-3)Gal(b1-4)GlcNAc(b1-3)Gal(b1-4)GlcNAc(b1-3)Gal(b1-4)GlcNAc(b1-3)Gal(b1-4)GlcNAc(b1-2)Man(a1-6)]Man(b1-4)GlcNAc(b1-4)GlcNAc. The procedure, abridged:
as §1

The target in assay [23] is Gal(b1-4)GlcNAc(b1-3)Gal(b1-4)GlcNAc(b1-3)GalNAc. The method, boiled down:
as §1

B1: CpGal16 (Clavelina picta) (protein)
chain: MAKMITNYVGKRIECIMVATDMMSTVFSLASATGDLPFYINFRQRENSIVMNTRVHGKWQYEKSQSSGGMNFYEPFRLVVEVRPSVFKVTVSTMGEEDGITFNLQYSQITIKPDEIVAMHLGYCNLRSELLVTDL
For B1, the “glycan array binding signal (z-score)” value was 0.631 in [1]; -0.171 in [2]; -0.097 in [3]; -0.38 in [4]; -0.341 in [5]; 0.003 in assay [6]. The “glycan array binding signal (z-score)” value is -0.294 in [7]; 1.1 in assay [8]; 0.571 in assay [9]; 0.683 in assay [10]; 0.521 in assay [11]; -0.379 in [12]. Further, the “glycan array binding signal (z-score)” value in assay [13] stood at 0.774; in [14] it was 0.953; in [15], 1.44; in assay [16] it was 1.25; in assay [17] it was 1.05; in assay [18] it was 1.12. Besides, the “glycan array binding signal (z-score)” value in assay [19] is 1.09; in assay [20], 1.28; in [21], 1.41; in assay [22] it was 0.463; in assay [23] it was -0.168.
